In patent publication US8445449B2, “Method and peptide for regulating cellular activity” (The United States of America, as represented by the …, priority 2004, dated 2013):
At least one peptide structure holds a part that was inferred or is arguable (an end, a ring closure or a residue). Some compounds share one wording; it may come from a single statement. Where no end group is shown, it is not given here.

Columns and labels:
RAW264.7 cells = assay: Internalization of FITC-labeled peptide assessed by FACS; format: cell-based, mouse
[1] = system: TLR-induced MIP-2 secretion from RAW264.7 cells; assay: MIP-2 secretion (ELISA) from RAW264.7 cells activated by PAMPs/TLR ligands; format: cell-based, mouse; conditions: for % Inhibition of MIP-2 secretion / MIP-2 (pg/ml +/− S.D.): peptide 15 minutes before; for effect on MIP-2 production, poly(I:C) stimulation: poly (I:C) (10 μg/ml)
[2] = maximal concentration not affecting cell viability, LPS (1 ng/ml), 18 hours
[3] = maximal concentration not affecting cell viability, 18 hours

| Sequence | effect on MIP-2 production, LPS stimulation [1, 2] | effect on MIP-2 production, poly(I:C) stimulation [1, 3] | also measured |
| --- | --- | --- | --- |
| DIVKLTVYDCI [peptide P13 (no transducing sequence)] |  |  | geometric mean fluorescent unit (F) of internalized FITC-peptide (RAW264.7 cells; 10 μM FITC-labeled peptide, 15 minutes, RAW264.7 cells): 17; internalization into RAW264.7 cells (RAW264.7 cells; FITC-labeled peptides, FACS): not internalized; % Inhibition of MIP-2 secretion ([1]; CpG ODN (1 μg/ml)): 6%; MIP-2 (pg/ml +/− S.D.) ([1]; CpG ODN (1 μg/ml)): 29,312 +/− 618 pg/ml; % Inhibition of MIP-2 secretion ([1]; LPS (1 ng/ml)): 0%; MIP-2 (pg/ml +/− S.D.) ([1]; LPS (1 ng/ml)): 46,931 +/− 1335 pg/ml; effect on MIP-2 secretion in response to LPS or CpG-ODN ([1]; peptide lacking the transducing sequence): no effect |
| EEQFGTIEELKQKLRLNRRRRRRRRR [P10] |  |  | effect on MIP-2 secretion, CpG-ODN stimulation ([1]; maximal concentration not affecting cell viability, CpG-ODN (1 μg/ml), 18 hours): cytokine enhancing ability |
| EEYFMYRGLLGLRIKYGRRRRRRRRR [P7] | inhibited |  |  |
| GDKFTVTTRRENEERKKYRRRRRRRRR [P2] | significantly enhanced |  |  |
| KYCLRAIKLFIRRRRRRRRR [P16] | inhibited | inhibitory activity |  |
| LQNRLVYVEMSRRRRRRRRR [P18] |  | inhibitory activity |  |
| NEERKKYLPLQKGKTTDRRRRRRRRR [P3] |  | increases MIP-2 production |  |
| NEIKKFDNDAEEQFGTIRRRRRRRRR [P9] | significantly enhanced |  |  |
| QKGKTTDVIKPDYLEYRRRRRRRRR [P4] | significantly enhanced |  |  |
